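Five concentrations, 48 hours, 96-well plates. GI50 = concentration required for 50% inhibition of growth. TGI: concentration producing complete growth inhibition.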
Test system: NCI-H322M lung
Experiment: growth of human tumour cells (NCI), 48 h

Compound	GI50	TGI
CC(Nc1c(C#N)cnc2ccc(-c3cncc(-c4n[nH]c(=O)o4)c3)cc12)c1ccccc1 (centres undefined)	2920 nM	> 100 µM
CSc1ccc(/C(=N/N=C(N)N)c2ccccc2)cc1	722 nM	18.8 µM

Source: PubChem BioAssay (NCI)
